Results published in PubChem BioAssay (NCI).
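The compound was tested at five concentrations on cells cultured in 96-well plates, with a 48-hour exposure period. GI50 = concentration required for 50% inhibition of growth. Definition used: TGI = concentration required for complete inhibition of growth.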

system: NCI-H322M lung; experiment: NCI-60 cell line screen, 48 h

With `CCOc1ccc(-c2oc(/C=N/NS(=O)(=O)c3ccc(C)cc3)c([N+](=O)[O-])c2-c2ccc(OCC)cc2)cc1` as the compound, how does the TGI read?
Its TGI is greater than 70.3 µM.

Which TGI does the source give for `NS(=O)(=O)c1cc(S(N)(=O)=O)c(NC(=O)N(c2ccccc2)c2ccccc2)c(Cl)c1Cl` here?
The TGI was 96.9 µM.

For `CC(=O)O[C@H]1C(=O)N(c2cc3c4ccccc4ccc3c3ccccc23)[C@@H]1c1ccccc1`, which TGI is on record?
The TGI was 57.1 µM.

For `COC(=O)c1ccc(/C=C2\CCc3ccccc3C2=O)cc1`, which TGI is on record?
Its TGI is greater than 100 µM.

`C=CCOC(=O)CCCCCCCCCCCCCCCOC(=O)C1=C(CCC[C@@H](C)O[Si](C)(C)C(C)(C)C)NC(=O)N2[C@H](CC3(CC/C=C\[C@H](CC)O[Si](C(C)C)(C(C)C)C(C)C)OCCO3)CC[C@H]12` was tested. Which TGI did it give?
Its TGI is greater than 100 µM.

How did the TGI turn out when `C=C1CC(Cn2cc(Br)c(=O)[nH]c2=O)(c2ccc(-c3ccccc3)cc2)OC1=O` (stereo not drawn) was run?
Its TGI is 20.3 µM.

Which TGI does the source give for `Cc1nnc(N=Nc2c(O)[nH]c3ccccc23)n1N` here?
Its TGI is greater than 100 µM.

With `CCCNC(=O)CCC(C)[C@H]1CCC2C3C(C[C@H](OC(C)=O)[C@@]21C)[C@@]1(C)CCC2(C[C@H]1C[C@H]3OC(C)=O)OOC1(CCCCC1)OO2` (stereo partly drawn) as the compound, how does the TGI read?
Its TGI is greater than 100 µM.

For `COc1ccc2cc(-c3c(-c4ccncc4)nc(-c4ccc(S(C)=O)cc4C)n3C)ccc2c1` (stereo not drawn), which GI50 is on record?
The GI50 was greater than 25 µM.

And the TGI?
Its TGI is greater than 25 µM.

For `Cc1cc([N+](=O)[O-])c(S(=O)(=O)c2ccccc2)c([N+](=O)[O-])c1`, which TGI is on record?
Its TGI is 28.3 µM.

With `NC(=O)c1cc(I)ccc1NC(=O)COc1ccccc1` as the compound, how does the GI50 read?
The GI50 was 1.37 µM.

What about the TGI of the same compound?
The TGI was greater than 100 µM.

`O=c1[nH]c2cc(Cl)c(Cl)cc2n2cc3ccccc3c12` was tested. Which GI50 did it give?
The GI50 was 13.6 µM.

And the TGI?
The TGI was 27.2 µM.

What does the source list for `O=C(Cc1ccc(/C=C/C(=O)c2ncc[nH]2)cc1)Nc1ccc(C(F)(F)F)cc1`?
GI50: 4.68 µM; TGI: 9.41 µM

Which TGI does the source give for `CC(C)(C)[Si](C)(C)OCC1OC(n2cnc3c(N)ncnc32)C(O)C1O` (stereo not drawn) here?
Its TGI is greater than 100 µM.

How did the TGI turn out when `CCCCCCCCCCCCCCCCOCC(Cl)COP(=O)(O)OP(=O)(O)OCC1OC(n2cnc3c(N)ncnc32)C(O)C1O` (stereo not drawn) was run?
Its TGI is greater than 100 µM.

`COc1ccc2[nH]c3c(=O)[nH]ncc3c2c1` was tested. Which TGI did it give?
The TGI was greater than 100 µM.

With `COC(=O)c1cc2c3c(ccc2[nH]1)N(C(=O)c1cc2c4c(ccc2[nH]1)N(C(=O)c1cc2c5c(ccc2[nH]1)N(C(N)=O)CC5)CC4)CC3` as the compound, how does the TGI read?
Its TGI is greater than 100 µM.

With `CCc1cccc(CC)c1/C=C/c1cncc(C(=O)NC)c1` as the compound, how does the GI50 read?
The GI50 was greater than 25 µM.

And the TGI?
Its TGI is greater than 25 µM.

With `COc1cc2cc(Oc3ccc(NC(=O)c4cccc5c4OCCO5)cc3)c(C)nc2cc1OC` as the compound, how does the GI50 read?
The GI50 was 17.7 µM.

And the TGI?
The TGI was greater than 100 µM.

`c1ccc(CC(NCCNC(Cc2ccccc2)c2ccccc2)c2ccccc2)cc1` (stereo not drawn) was tested. Which GI50 did it give?
Its GI50 is 1.12 µM.

What about the TGI of the same compound?
The TGI was 3.77 µM.

Which TGI does the source give for `NC(=O)c1c[se]c(C2OC(COP(=O)(O)CP(=O)(O)OCC3OC(n4cnc5c(N)ncnc54)C(O)C3O)C(O)C2O)n1` (stereo not drawn) here?
The TGI was greater than 100 µM.

`CC(C)=CCC[C@@H](C)c1c2[nH]c3ccccc3sc-2c(C)c(=O)c1=O` was tested. Which TGI did it give?
Its TGI is greater than 75 µM.

What does the source list for `Cc1cc(NC(=O)NC(=O)c2ccccc2N(C)C)ccc1Oc1ncc(Br)cn1`?
GI50: 1.48 µM; TGI: > 63.1 µM

With `COC1=CC(=O)C2=C(C1=O)[C@H]1CC[C@]3(C)[C@@H](OC(C)=O)CC[C@H]3[C@@H]1CC2` as the compound, how does the TGI read?
Its TGI is greater than 100 µM.

For `COC(=O)c1c(OC)cc2cc3c(c(O)c2c1C)C(=O)C1(O)C(=O)C=C(OC)C(OC(=O)CC(C)N)=C1C3=O` (stereo not drawn), which TGI is on record?
Its TGI is greater than 100 µM.

Which TGI does the source give for `Nc1ncc(/C=N/O)c(NCC2(CO)CC(CCc3ccccc3)C2)n1` (stereo not drawn) here?
The TGI was 24.2 µM.

With `COc1ccc(C(=O)C[C@]2(O)C(=O)Nc3c(Cl)ccc(Cl)c32)cc1` as the compound, how does the GI50 read?
The GI50 was 2.11 µM.

And the TGI?
Its TGI is greater than 100 µM.

How did the TGI turn out when `CC(=O)OCCC(O[Si](c1ccccc1)(c1ccccc1)C(C)(C)C)C(C)(C)O` (stereo not drawn) was run?
The TGI was greater than 100 µM.

How did the TGI turn out when `C[N+](C)=c1nc(N2CCOCC2)ss1` was run?
Its TGI is greater than 100 µM.

For `O=C(CSc1nc2ccc(I)cc2c(=O)n1Cc1ccccc1)NN1C(=O)CCC1=O`, which TGI is on record?
The TGI was greater than 100 µM.

For `OC(c1cc(-c2ccccc2)nc2c1ccc1ccccc12)C1CCCCN1` (stereo not drawn), which TGI is on record?
The TGI was 2.94 µM.

`CC(C)(C)OC(=O)N1CCc2c(n(C/C=C/c3ccccc3)[nH]c2=O)C1` was tested. Which TGI did it give?
Its TGI is greater than 100 µM.

Which TGI does the source give for `O=C1/C(=C\c2cccc(Oc3ccccc3)c2)SC(c2ccccc2)N1c1cccc([N+](=O)[O-])c1` (stereo not drawn) here?
The TGI was greater than 100 µM.

`CCCCCCOP(=O)(OCCCCCC)OC(C(=O)OC)C(F)(F)F` (stereo not drawn) was tested. Which TGI did it give?
Its TGI is greater than 100 µM.

Which TGI does the source give for `COC(=O)C(C(=O)C(=O)NC1Nc2ccc(C)cc2S1)c1nc2ccc(Cl)cc2[nH]c1=O` (stereo not drawn) here?
The TGI was greater than 100 µM.

What does the source list for `CCOCNc1ccc(N2C(=O)/C(=C/c3ccc(N(CC)CC)cc3)N=C2c2ccccc2)cc1`?
GI50: > 100 µM; TGI: > 100 µM

`c1ccc(NC[Si]23OCCN(CCO2)CCO3)cc1` was tested. Which TGI did it give?
The TGI was greater than 100 µM.

Which results are given for `COc1ccc(NC(=O)c2sc3nc4c(cc3c2N)CCCC4)cc1`?
GI50: 6.07 µM; TGI: > 100 µM

How did the GI50 turn out when `CCC(=O)c1cc([N+](=O)[O-])c(Br)s1` was run?
The GI50 was 16.6 µM.

And the TGI?
Its TGI is 30.8 µM.

For `COc1cc(O)c(C(C)=O)c(O)c1`, which TGI is on record?
The TGI was greater than 100 µM.

Which GI50 does the source give for `CC(=O)[CH-]C(=O)c1ccccc1.CC(=O)[CH-]C(=O)c1ccccc1.[CH2-]CCC.[CH2-]CCC.[Sn+4]` here?
The GI50 was 1.55 µM.

What about the TGI of the same compound?
Its TGI is 2.89 µM.

With `NC(=O)C1=CC2C3C=CC2(O)C(=O)OC3O1` (stereo not drawn) as the compound, how does the TGI read?
The TGI was 44 µM.

How did the TGI turn out when `Cc1cn([C@H]2[C@@H](CO)C[C@H]2O)c(=O)[nH]c1=O` was run?
The TGI was greater than 100 µM.

`COc1cc2nnn3c4ncccc4c(N=O)c3c2cc1OC` was tested. Which GI50 did it give?
The GI50 was 20.7 µM.

And the TGI?
The TGI was 67.8 µM.

How did the TGI turn out when `O=C1C(c2ccccc2)=C(c2ccccc2)[C@H](c2ccccc2)[C@]1(Cc1nnn(-c2ccc([N+](=O)[O-])cc2)c1N1CCOCC1)c1ccccc1` was run?
Its TGI is greater than 37.5 µM.

With `CCCCCCCCCC(=O)Oc1cccc2onc(C)c12` as the compound, how does the TGI read?
The TGI was greater than 100 µM.

What does the source list for `O=C(/C=C/c1cn(-c2ccccc2)nc1-c1ccc([N+](=O)[O-])cc1)c1ccc(Cl)cc1`?
GI50: > 100 µM; TGI: > 100 µM

Which TGI does the source give for `CO[P@]1(=O)O[C@@H](c2ccccc2)[C@H](O)[C@@]1(O)c1ccccc1` here?
Its TGI is greater than 100 µM.

For `CC(C)(CO)N=Cc1ccccc1[O-].CC(C)(CO)N=Cc1ccccc1[O-].[Co+2]`, which GI50 is on record?
Its GI50 is greater than 85.5 µM.

What about the TGI of the same compound?
Its TGI is greater than 100 µM.

What does the source list for `COc1ccc(/C=C(/C(=O)n2cnnn2)c2cc(OC)c(OC)c(OC)c2)cc1`?
GI50: 8.31 µM; TGI: > 100 µM

Which TGI does the source give for `COC(=O)n1c(C[P+](c2ccccc2)(c2ccccc2)c2ccccc2)cc2ccccc21` here?
Its TGI is 25.9 µM.

For `COc1nc2c(c(O)c(C)c(=O)n2OC2OC(COC(C)=O)C(OC(C)=O)C(OC(C)=O)C2OC(C)=O)c(=O)n1C` (stereo not drawn), which TGI is on record?
Its TGI is greater than 100 µM.

With `CC(=O)c1ccc(NC(=O)CSc2nc(C)nc3c2sc(=S)n3-c2ccccc2)cc1` as the compound, how does the TGI read?
Its TGI is greater than 10 µM.

`CC12CC(c3ccccc3O1)C(C(=O)Nc1cccc(F)c1)C(=O)N2` (stereo not drawn) was tested. Which TGI did it give?
The TGI was greater than 100 µM.

Which GI50 does the source give for `COc1ccc(C2ONC3=NCCN32)cc1` (stereo not drawn) here?
The GI50 was greater than 100 µM.

And the TGI?
Its TGI is greater than 100 µM.

For `COc1cc(-n2cc(-c3cc(O)c(C/C=C(\C)CCC=C(C)C)c(O)c3)nn2)cc2c1O[C@]1(C)CC[C@@H](O)C(C)(C)[C@H]1C2`, which GI50 is on record?
Its GI50 is 4.01 µM.

And the TGI?
The TGI was 30.8 µM.

`CN(C)C(=O)SC1=C(c2c(Cl)cccc2Cl)C(=O)c2ccccc21` was tested. Which GI50 did it give?
Its GI50 is 16.5 µM.

What about the TGI of the same compound?
Its TGI is 32.9 µM.

For `Nc1ncnc2c1c(-c1ccc(Oc3ccccc3)cc1)nn2C[C@@H]1SSC[C@@H]1O`, which GI50 is on record?
Its GI50 is 2.24 µM.

And the TGI?
The TGI was 18.1 µM.

With `Cn1c(=O)sc2cc(C(=S)N3CCOCC3)ccc21` as the compound, how does the TGI read?
The TGI was greater than 100 µM.

With `CC1=C2C(=O)c3ccccc3C(=O)[C@H]2C[C@@H](N2CCCCCC2=O)O1` as the compound, how does the TGI read?
The TGI was 63.7 µM.

With `CC(C)(C)c1c(C(C)(C)C)c(=O)c1=O` as the compound, how does the TGI read?
The TGI was greater than 100 µM.

Which TGI does the source give for `CC1(C)OC(COCCOCCCCCO)C(COCCOCCCCCO)O1` (stereo not drawn) here?
Its TGI is greater than 100 µM.

How did the GI50 turn out when `CN(C)C/C=C/C(=O)Nc1ccc(C(=O)N2CCC[C@@H](Nc3ncc(Cl)c(-c4c[nH]c5ccccc45)n3)C2)cc1` was run?
Its GI50 is 0.147 µM.

What about the TGI of the same compound?
Its TGI is 10.2 µM.

Which TGI does the source give for `CC/C(Cl)=N\OC(=O)Nc1ccc(F)cc1F` here?
Its TGI is 33.1 µM.

`CCCn1cnc2c(SCc3ccccc3)nc(N)nc21` was tested. Which GI50 did it give?
Its GI50 is greater than 100 µM.

And the TGI?
Its TGI is greater than 100 µM.
